Measured values taken from article PMC4336329 (PLoS ONE, 2015).
The whole screen tested about 310,000 compounds, of which about 2,200 (0.71%) showed an effect of 50% or more. Effects have a minus sign here. Some of the results follow.

Molecular target: human ether-à-go-go-related gene (hERG) potassium channel (human, UniProt Q12809)
Experiment: primary screen, population patch clamp on CHO cells stably expressing hERG

human ether-à-go-go-related gene (hERG) potassium channel, sequence (Q12809 whole entry, looked up): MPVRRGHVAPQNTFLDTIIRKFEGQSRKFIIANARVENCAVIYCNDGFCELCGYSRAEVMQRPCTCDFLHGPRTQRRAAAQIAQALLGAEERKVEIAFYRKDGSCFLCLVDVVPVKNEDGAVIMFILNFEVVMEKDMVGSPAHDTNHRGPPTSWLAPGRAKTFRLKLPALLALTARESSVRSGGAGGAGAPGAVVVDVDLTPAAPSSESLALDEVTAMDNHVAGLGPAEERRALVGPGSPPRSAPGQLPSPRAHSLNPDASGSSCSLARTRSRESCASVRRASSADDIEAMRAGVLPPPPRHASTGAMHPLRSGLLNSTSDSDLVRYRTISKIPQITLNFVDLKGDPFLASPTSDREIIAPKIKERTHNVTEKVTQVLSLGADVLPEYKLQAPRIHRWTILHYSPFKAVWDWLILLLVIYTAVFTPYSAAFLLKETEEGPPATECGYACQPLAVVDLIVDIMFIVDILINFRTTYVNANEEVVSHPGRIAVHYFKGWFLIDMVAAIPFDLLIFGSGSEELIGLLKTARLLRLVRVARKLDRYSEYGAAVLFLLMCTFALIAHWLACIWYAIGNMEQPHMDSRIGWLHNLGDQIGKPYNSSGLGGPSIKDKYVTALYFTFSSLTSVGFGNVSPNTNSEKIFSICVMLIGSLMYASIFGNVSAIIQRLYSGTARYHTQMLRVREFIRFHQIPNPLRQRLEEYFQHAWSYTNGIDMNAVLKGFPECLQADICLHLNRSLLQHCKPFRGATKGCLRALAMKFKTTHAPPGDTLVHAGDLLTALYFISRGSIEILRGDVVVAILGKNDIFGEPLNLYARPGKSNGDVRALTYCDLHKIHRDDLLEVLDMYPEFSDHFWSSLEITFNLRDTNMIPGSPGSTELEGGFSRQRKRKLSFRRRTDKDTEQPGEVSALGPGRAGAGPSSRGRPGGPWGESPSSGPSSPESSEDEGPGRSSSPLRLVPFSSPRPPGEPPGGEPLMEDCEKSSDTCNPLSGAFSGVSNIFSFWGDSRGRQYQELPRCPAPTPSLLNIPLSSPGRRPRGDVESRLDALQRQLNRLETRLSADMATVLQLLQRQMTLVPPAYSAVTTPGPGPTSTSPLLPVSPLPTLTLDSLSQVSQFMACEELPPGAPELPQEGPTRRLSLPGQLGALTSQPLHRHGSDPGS

Row | Structure (SMILES) | hERG current change (%, negative = inhibition) at 1uM
1 | COc1ccc(Sc2ccc(/C=C3\C(=O)NN(c4ccccc4)C3=O)o2)cc1 | 9.78%
2 | CCn1nc(C)c(CNCc2cn[nH]c2-c2cc3ccccc3o2)c1C | 24.1%
3 | O=C(NCCc1ccccc1)C1CCN(C2CCN(Cc3ccco3)CC2)CC1 | -25.2%
4 | O=C(O)c1ccc(N/C(=N\S(=O)(=O)c2ccc(Cl)cc2)c2ccccc2)cc1 | 1.79%
5 | CCCOc1ccc(-c2nnc(-c3ccco3)o2)cc1 | 6.67%
6 | COc1ccccc1CN1[C@@H](CC(C)=O)c2cc(C(F)(F)F)ccc2S1(=O)=O | 8.57%
7 | Cc1ccc(C(=O)N(C)CC(=O)Nc2cccc(C)c2C)o1 | 8.8%
8 | Cc1noc(C)c1COc1ccc(C(=O)O)cc1 | 16.5%
9 | Cc1nn(-c2ccccc2)c(C)c1NC(=O)COC(=O)C1CC(=O)N(CCc2ccccc2)C1 (stereo not drawn) | 9.5%
10 | C/C(CC(=O)NCc1ccco1)=N\NC(=O)Cc1ccccc1 | 12.5%
11 | CCOC(=O)C1(CC2CCCCO2)CCN(Cc2nccn2-c2cccc(C)c2)CC1 (stereo not drawn) | -1.48%
12 | C=CCNC(=S)NNC(=O)c1csc(C)c1CC | 4.18%
13 | CCOC(=O)c1sc(=NC(=O)C2CC2)n(C)c1C | 4.22%
14 | Cc1cccc(NC2=CC(=O)CC(C)(C)C2)c1C | 12%
15 | CC(C)[C@H](NC(N)=O)C(=O)NNC(=O)COc1cccc(C(F)(F)F)c1 | 6.49%
16 | Cc1onc(-c2c(Cl)cccc2Cl)c1C(=O)N1CCSCC1 | -2.27%
17 | CCc1ccc(N(CC(=O)Nc2nc3ccc(C)cc3s2)S(=O)(=O)c2c(C)noc2C)cc1 | 7.99%
18 | COc1ccc(CN2CCOCCOCCOCCOCCOCC2)cc1 | 7.46%
19 | COc1cc(OC)cc(C(=O)OCC(=O)NC(C)CCc2ccccc2)c1 (stereo not drawn) | 18.2%
20 | CCCc1cc(N2CCOCC2)n2ncc(-c3ccccc3)c2n1 | 14.7%
21 | CCOC(=O)C1=C(O)/C(=C/c2ccc(OCC(=O)O)c(OC)c2)SC1=Nc1ccc(OCC)cc1 | 5.5%
22 | O=S1(=O)NC(c2ccccc2)CC(CC2CCCCC2)O1 (stereo not drawn) | -3.18%

Row | Structure (SMILES) | hERG current change (%, negative = inhibition) at 1uM
23 | CC(=O)Nc1ccc2c(c1)C(=O)c1ccccc1C2=O | 16.3%
24 | COc1ccc(-c2nn(-c3ccccc3)cc2/C=N/O)cc1 | 14.2%
25 | COC(=O)[C@@]1(Cc2ccc(F)cc2)[C@H]2c3cc(C(=O)N(C)C)n(Cc4ccc(OC)c(OC)c4)c3C[C@H]2CN1C(=O)c1ccccc1 | 12.4%
26 | CCN(c1ccccc1)S(=O)(=O)c1ccc2[nH]c(=O)[nH]c2c1 | 8.82%
27 | CC(C)c1ccc(CNC(=O)C(=O)NCC2CCCO2)cc1 (stereo not drawn) | 8.65%
28 | COc1cccc(/C=N/NC(=O)CC(=O)NCCc2ccc(OC)c(OC)c2)c1 | -0.183%
29 | COc1ccc(C(=O)C2CCCN(C(=O)C3CCOCC3)C2)c(C)c1 (stereo not drawn) | 21.3%
30 | O=C(N/N=C/c1c(F)cccc1Cl)C(=O)N1CCCCCC1 | 14.4%
31 | CCOC(=O)c1cc(-c2ccccc2C)nn1Cc1cc(CC)no1 | 7.04%
32 | CCn1c2ccccc2c2cnc(N=CN(C)C)c(C#N)c21 | 9%
33 | CC1(C)CC(=O)C(CS(=O)(=O)c2ccccc2)=C(Cl)C1 | 8.32%
34 | Cc1nn(CCCC(=O)NCc2ccc(F)cc2)c(C)c1[N+](=O)[O-] | -6%
35 | Cc1ccccc1OCc1n[nH]c(=S)n1Cc1ccccc1 | 13.3%
36 | Cc1cccc(NC(=S)Nc2cccc(C)n2)n1 | 6.22%
37 | COCc1cc(C)nc(OCC(=O)N/N=C/c2ccc(-c3cc([N+](=O)[O-])ccc3Cl)o2)c1C#N | 6.66%
38 | Cc1cc(NC(=O)CCC(=O)N(CCC(C)C)C(C(=O)NCC2CCCO2)c2ccccc2C)no1 (stereo not drawn) | 12%
39 | COc1ccc(Nc2cccccc2=O)cc1 | 5.53%
40 | CN(C)c1ccc(/C=N/Nc2cccc(C(=O)O)c2)cc1 | 19.1%
41 | Cc1nc(/C=C\C(=O)O)c2cc(C)oc2n1 | 13%
42 | CCOC(=O)CSc1ncnc2c1sc1nc(N3CCOCC3)c3c(c12)CCCC3 | 21.5%
43 | CC(=O)c1c(C)[nH]c(C(=O)OCC(=O)Nc2nnc(-c3ccccc3)o2)c1C | 12.1%
44 | O=C(Cn1nc(-c2ccccc2)nc1-c1ccccc1)OC1CCCCC1 | 12.7%

Row | Structure (SMILES) | hERG current change (%, negative = inhibition) at 1uM
45 | CN1C(=O)C2C=CC1C1C(=O)N(c3ccccc3)C(=O)C21 (stereo not drawn) | 17.1%
46 | CCN1C(=O)c2ccc(C(=O)O)cc2C1=O | 11.5%
47 | O=C(Cn1nnc2ccccc2c1=O)Nc1ccc(S(=O)(=O)N2CCOCC2)cc1 | 4.48%
48 | Cc1cc(C(=O)COC(=O)c2ccc(CO)cc2)c(C)n1CC1COc2ccccc2O1 (stereo not drawn) | -6.58%
49 | Cc1ccc(NC(=O)CCC(=O)c2ccc(Cl)s2)nc1 | 8.77%
50 | CC(C)c1ccc(NC2CCCN(C(=O)c3cccs3)C2)cc1 (stereo not drawn) | 7.21%
51 | COCCn1c(N)c(Sc2ccc(Cl)cc2)c(=O)[nH]c1=O | 9.92%
52 | N#CCCN(CCC#N)S(=O)(=O)c1ccc(C(=O)Nc2nc(-c3ccccc3)c(C(=O)c3ccccc3)s2)cc1 | 3.88%
53 | O=C(C1CCN(S(=O)(=O)c2cccnc2)CC1)N1CCN(c2ccc(Cl)cc2)CC1 | -10.6%
54 | CC(C)CC(NC(N)=O)C(=O)Nc1ccc(Cl)c(Cl)c1 (stereo not drawn) | 8.31%
55 | O=c1[nH]c2cc([N+](=O)[O-])c(NCCO)c([N+](=O)[O-])c2[nH]1 | 9.99%
56 | COc1ccccc1S(=O)(=O)Cc1ccc(C(=O)NC2CCCCC2)o1 | 1.87%
57 | O=C(c1ccc(N2CCOCC2)c([N+](=O)[O-])c1)N1CCN(S(=O)(=O)c2cccs2)CC1 | -1.71%
58 | COc1ccc(-c2csc(NC(=O)CN3C(=O)CCC3=O)n2)cc1 | -0.311%
59 | COc1ccc2[nH]c(=O)c(CN(Cc3cccs3)C(=S)Nc3cccc(C)c3)cc2c1 | 5.81%
60 | N#Cc1cc(Nc2c(N)nc[nH]c2=O)c([N+](=O)[O-])cc1C#N | 9.47%
61 | CC(NC(=O)CN1CCC(C(N)=O)CC1)c1ccccc1 (stereo not drawn) | 11.7%
62 | O=C(NCCNS(=O)(=O)c1ccccc1Cl)c1cc(OCC(F)(F)F)ccc1OCC(F)(F)F | 2.42%
63 | C=Cc1ccc(Cn2c(=O)n(CCCOC)c(=O)c3sccc32)cc1 | 2.64%
64 | O=c1c2cnn(-c3ccccc3)c2nc(-c2ccco2)n1-c1ccccc1 | 13.5%
65 | CC(C)CNc1nc(SCC(=O)Nc2ccccc2)nc(N2CCOCC2)n1 | 4.88%
66 | O=c1cc(CNc2cc(C(F)(F)F)cc(C(F)(F)F)c2)nc2sccn12 | 6.39%

Row | Structure (SMILES) | hERG current change (%, negative = inhibition) at 1uM
67 | COC(=O)c1sccc1NC(=O)COc1ccc(F)cc1Cl | 3.54%
68 | Cc1ccc(-c2csc(NCCc3nc4cc(Cl)c(Cl)cc4n3CCOCCO)n2)cc1 | 6.51%
69 | Cc1c(NS(=O)(=O)c2ccc(F)cc2)c(=O)n(-c2ccccc2)n1C | 10.9%
70 | CN(C)c1ccc(NC(=O)CSc2n[nH]c(-c3ccco3)n2)cc1 | 8.47%
71 | Cc1ccc2cc(CN(CC3CCCO3)C(=S)Nc3ccccc3)c(=O)[nH]c2c1C (stereo not drawn) | 13.3%
72 | Cc1cccc(OCC(=O)Nc2ccccc2N2CCCCC2)c1C | 2.33%
73 | Cc1[nH]c(C)c(S(=O)(=O)N(C)Cc2ccccc2)c1C(=O)N1CCCC1 | 15.8%
74 | CCC(=O)N1CCc2cc(S(=O)(=O)CCC(=O)NCc3ccc4c(c3)OCO4)ccc21 | 8.37%
75 | O=C(c1ccccc1)N(NC(=O)C(O)(c1ccccc1)c1ccccc1)c1cccc(F)c1 | 4.53%
76 | Cc1ccc2c(c1)S/C(=C/c1ccc[n+](C)c1)N2CCO.[I-] | 6.01%
77 | O=C(Nc1cccc(Cl)c1)C1CCCCC1 | 5.93%
78 | O=C(O)C(=O)O.O=S(=O)(c1ccc(F)cc1)N1CCN(CC(O)COc2ccccc2F)CC1 (stereo not drawn) | 7.57%
79 | O=C(Cc1ccc(F)cc1)Nc1ccc(F)c([N+](=O)[O-])c1 | 4.86%
80 | COc1ccc2[nH]c(C)c(CCNc3ccc(C(F)(F)F)cc3[N+](=O)[O-])c2c1 | 4.11%
81 | Cc1ccc(S(=O)(=O)C2(C(=O)NCc3ccccc3Cl)CC2)cc1 | 11.6%
82 | CN1CCN(S(=O)(=O)c2cccc(C(=O)N(C)Cc3c(F)cccc3Cl)c2)CC1 | 4.69%
83 | O=C(O)Cn1c(C(F)(F)F)nc2ccccc21 | 8.46%
84 | COc1ccc(CC(=O)NCc2cccc(CNC(=O)Cc3ccc(OC)c(OC)c3)c2)cc1OC | 20.3%
85 | Cn1c(N)c(C(=O)COC(=O)CN2C(=O)c3ccccc3C2=O)c(=O)n(C)c1=O | 8.44%
86 | CN(CC(=O)Nc1ccc(F)cc1)CC(=O)Nc1ccc(F)c(F)c1F | 0.236%
87 | C#CCOCCOCCOCCNc1nc(N2CCN(C(=O)C([C@@H](C)CC)n3cc(C(N)COC(=O)C(F)(F)F)nn3)CC2)nc(N2CCN(C(=O)[C@H](CCCCN)n3cc(C(N)CC(C)C)nn3)CC2)n1.Cl (stereo partly drawn) | 8.25%
